The other results are listed elsewhere or left out. At the low end of the ranking the order means little.

This assay addresses T1, GST-Rok-C97-191 (UniProt O34857).
T1 sequence: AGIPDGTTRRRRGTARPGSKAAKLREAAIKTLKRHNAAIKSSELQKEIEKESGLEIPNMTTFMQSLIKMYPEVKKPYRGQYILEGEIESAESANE
Kind of assay: protein binding microarray.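 Further: rank score from −0.5 (least bound) to 0.5 (best bound).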 The note with it: Rok is a gene silencer of Bacillus subtilis; high values mean tight binding; most listed sequences are background and not binding sites; double strand, one strand shown.
CCCTTACC displayed a binding signal of -0.213 E-score. The value for AACATCAG was 0.203 E-score; that for CCACTGCG was -0.211 E-score; that for GTGCTACA was 0.109 E-score. In turn, ATTTAAAT returned a binding signal of 0.32 E-score. The value for AGCCTACG was -0.22 E-score; that for CGCCTTAC was -0.0697 E-score; that for TTGGACAA was -0.021 E-score. The value for TAGCCAAA was 0.12 E-score; that for ATTCGATG was 0.154 E-score; that for AGAAGTTC was 0.129 E-score. For the sequence CAAGCAAG, the binding signal was -0.131 E-score. The value for ACGTGCGG was -0.0284 E-score; that for ATACTAGG was 0.045 E-score. Sequence AATCACCG yielded a binding signal of -0.0342 E-score. With CTGTTCAA, the binding signal was -0.201 E-score. To GGCTACGA belongs -0.106 E-score; to AGCATTAA, 0.123 E-score; to TCAGACAA, -0.112 E-score.

CTAGACAA gave a binding signal of 0.0408 E-score. To AACGGCCT belongs -0.244 E-score; to AGGATCAG, 0.0221 E-score; to AAATTGAA, 0.171 E-score.

AAGACAAA: the binding signal was -0.0497 E-score.

GTTTACGA came in with a binding signal of 0.0113 E-score. The value for AGAAGACA was 0.059 E-score; that for GAGATGTA was 0.13 E-score; that for ATCTTGCA was 0.13 E-score. For the sequence ACATAATC, the binding signal worked out at 0.139 E-score. With GCCCGAGC, the binding signal was -0.151 E-score. As to GCAGCGAA, the binding signal is 0.00145 E-score. As for TAGCCAGA, the binding signal was -0.272 E-score.

GCGGTCGA yielded a binding signal of -0.194 E-score. As for GCGGAAGC, the binding signal is -0.0941 E-score. To CTCCATAC belongs 0.0352 E-score. The value for TGCATACA was -0.0705 E-score; that for CATCCCTA was -0.0266 E-score; that for CGGTCGGC was -0.26 E-score. To GAATCAAA belongs 0.0706 E-score. ATATTCAT returned a binding signal of 0.252 E-score.

Regarding AACACGGT, the binding signal is -0.171 E-score.

CACGTCGC returned a binding signal of -0.131 E-score. GTCTTACA gave a binding signal of -0.127 E-score. Sequence GACTTGAA showed a binding signal of 0.0321 E-score. To AGCTCCAT belongs 0.0944 E-score; to ACGACAGG, -0.216 E-score; to AACCGTGA, -0.055 E-score. In the case of CAATTACA, the binding signal stood at 0.164 E-score. To AGATAGAT belongs 0.349 E-score; to AGCCAGGG, -0.258 E-score. For ATCATATG, the binding signal worked out at 0.217 E-score. The value for ACGCGGGA was -0.0896 E-score; that for ACGTGAAG was -0.0554 E-score; that for GAGAGAAA was 0.201 E-score. To ATAAGGCC belongs -0.124 E-score. For the sequence GACCCCCC, the binding signal is -0.369 E-score. Sequence AGTGATAG had a binding signal of 0.317 E-score. The value for CGGCATAC was -0.0101 E-score; that for AGTGTTCA was -0.217 E-score. To TAGGCGCA belongs -0.0724 E-score; to AAACAAAA, -0.036 E-score; to GCCGTACC, -0.0469 E-score. The sequence TAAGATGA gave a binding signal of 0.0492 E-score. The value for ACGGTCTC was -0.222 E-score; that for TCTCAACA was 0.0624 E-score; that for CGATATAA was 0.312 E-score.

Sequence GCTGCAGA gave a binding signal of -0.121 E-score.

GAACAGTA displayed a binding signal of 0.179 E-score. The value for ACTGGACA was 0.0154 E-score; that for GAACTGGA was -0.0882 E-score. Sequence CGTCTACA displayed a binding signal of 0.0729 E-score. To GTTGGGCA belongs -0.118 E-score; to GAGGGGGA, -0.339 E-score; to CATTGTGA, -0.101 E-score. The sequence AACGTAAT returned a binding signal of 0.102 E-score.

Sequence AGTACAAT returned a binding signal of 0.269 E-score. To CGATTTGA belongs 0.0523 E-score. As for AGTGAGCG, the binding signal is -0.163 E-score. The value for ATGATACA was 0.232 E-score. Take CCCGTCGA: the binding signal is -0.188 E-score. ACAGGCCA returned a binding signal of -0.0827 E-score. The value for AGTTCGTA was 0.256 E-score; that for CTTTTGTC was -0.156 E-score; that for AAAAGCGT was -0.153 E-score.

AGAATTAA showed a binding signal of 0.181 E-score. The value for ATGTTCTA was 0.229 E-score; that for AGACCGAA was -0.134 E-score; that for AACTGACT was -0.0777 E-score. The value for GAGTTAAA was 0.136 E-score; that for AATCGACC was -0.0453 E-score; that for AGGGTGGC was -0.259 E-score.

With AAACGAGC, the binding signal was -0.161 E-score. For the sequence CGTCTTAC, the binding signal was -0.281 E-score. Sequence ACCGGGAC came in with a binding signal of -0.249 E-score. For TCTCCGAA, the binding signal was found to be 0.161 E-score. CAGTTATC registered a binding signal of 0.161 E-score.

ACTACCTG gave a binding signal of 0.0951 E-score. The value for CGTGTCAC was -0.0756 E-score; that for ACGTTTTC was 0.12 E-score; that for CCTGTAGA was 0.0258 E-score. The value for AGGGTATA was 0.154 E-score; that for AGGGTGCA was -0.108 E-score.

CTTACTTC had a binding signal of 0.0829 E-score. To ACTCAGCC belongs -0.213 E-score; to CCTAGACC, -0.246 E-score.

Sequence AACGATAT returned a binding signal of 0.229 E-score. CAACACAG came in with a binding signal of -0.126 E-score. The value for GTCGGGAA was -0.211 E-score; that for AGGTTAGG was -0.139 E-score; that for AGCCGATG was -0.0728 E-score.

The sequence AAGAATCA showed a binding signal of 0.18 E-score.

The sequence GCGATGGA came in with a binding signal of -0.00523 E-score.

Consider AACATGGC, for which the binding signal was -0.24 E-score. To CAGGCTGG belongs -0.202 E-score. Consider CCTGAAAA, for which the binding signal is -0.02 E-score. The value for AATGAATA was 0.196 E-score; that for CCGTATCA was 0.00786 E-score; that for TCTTGTCA was -0.0593 E-score.

CAAGATCA had a binding signal of 0.0691 E-score. The value for ACCCGTCA was -0.235 E-score.

In turn, AGCTGCGC came in with a binding signal of -0.25 E-score. To GTCCCTTA belongs -0.152 E-score. As for ATATACAG, the binding signal came to 0.317 E-score.

The sequence CGTCGAGA came in with a binding signal of -0.052 E-score. The sequence CCAGGACC yielded a binding signal of -0.258 E-score. The value for CTCAGGGA was -0.17 E-score; that for AAAGACCT was -0.0765 E-score; that for CTCCACAC was -0.0448 E-score. With ATGGGGTA, the binding signal amounted to 0.128 E-score.

For the sequence CAATTCAC, the binding signal was -0.057 E-score.

In turn, AACTTTAG had a binding signal of -0.0144 E-score. The value for AGATGTAC was 0.241 E-score; that for GAGTCCCA was 0.00589 E-score; that for TCGAGCGA was 0.00557 E-score.

CGCCCCAC gave a binding signal of -0.289 E-score. To TATGGAAA belongs 0.0318 E-score; to GCCTATAC, 0.162 E-score; to GTGGGGGA, -0.227 E-score. To AGGGTTGA belongs -0.224 E-score; to CCGACCTA, -0.0176 E-score; to CTGCATGC, -0.138 E-score. The sequence CATTCATC had a binding signal of -0.0118 E-score.

Sequence GCGGGCGA showed a binding signal of -0.374 E-score. The value for ACCGTTCC was -0.0133 E-score; that for AACCTCTT was -0.0952 E-score; that for CTAGAATA was 0.241 E-score.

For the sequence AGATCAGA, the binding signal came to 0.226 E-score. To TGCTACCA belongs 0.099 E-score. To ACGTAATC belongs -0.0356 E-score. As for AAAGTTGC, the binding signal was found to be 0.0237 E-score. Sequence ATCGGTCC had a binding signal of -0.119 E-score. To CGATGTGA belongs -0.117 E-score; to CTTCTGAA, -0.0549 E-score. The sequence TGATCCCA showed a binding signal of -0.105 E-score. The value for ATCGCTCA was -0.0831 E-score; that for ACCTAGAA was 0.142 E-score; that for ACCATGGT was 0.132 E-score. To CGCGCGTA belongs 0.0765 E-score; to AACCATGC, -0.113 E-score; to CTAGGTGC, 0.0387 E-score. In turn, CGATTGTA yielded a binding signal of 0.144 E-score. As for AACATATA, the binding signal amounted to 0.208 E-score. To AACTAACG belongs 0.263 E-score; to AATTCGAG, 0.139 E-score. With ACCAGAGC, the binding signal was -0.232 E-score. The value for CCTACGAG was -0.0397 E-score; that for ACCCGGGA was -0.0399 E-score. The value for ACAAATGC was -0.0581 E-score. To ATGATTAG belongs 0.16 E-score. In turn, CAATAGAG had a binding signal of 0.143 E-score. For ACTTCTTA, the binding signal is 0.266 E-score.

Sequence AGGGTTTA returned a binding signal of 0.0461 E-score.

The values above are taken from article PMC6212790.
